Assay results: the supplement of paper PMC8728848
The other results are listed elsewhere or left out.

Key:
Test in all cases: glycan array binding signal (z-score within array); higher = stronger binding
Conditions in all cases: glycan notation: IUPAC condensed, linker removed
[1] = target: Gal(b1-4)GlcNAc(b1-2)[Gal(b1-4)GlcNAc(b1-4)]Man(a1-3)[GlcNAc(b1-4)][Gal(b1-4)GlcNAc(b1-2)Man(a1-6)]Man(b1-4)GlcNAc(b1-4)GlcNAc
Outline: (§1)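 Negative Z-scores can be read as non-binding. The Z-score is calculated within each array and then averaged across arrays of one protein sequence at different concentrations or buffers and across linkers. Arrays, 3228 in all, were curated from the Consortium for Functional Glycomics database and kept only where the protein sequence was available.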

[2] = target: Gal(b1-4)GlcNAc(b1-2)[Gal(b1-4)GlcNAc(b1-4)]Man(a1-3)[GlcNAc(b1-4)][Gal(b1-4)GlcNAc(b1-2)[Gal(b1-4)GlcNAc(b1-6)]Man(a1-6)]Man(b1-4)GlcNAc(b1-4)GlcNAc
Outline: as §1

[3] = target: Gal(b1-4)GlcNAc(b1-2)[Gal(b1-4)GlcNAc(b1-4)]Man(a1-3)[GlcNAc(b1-4)][Gal(b1-4)GlcNAc(b1-2)[Gal(b1-4)GlcNAc(b1-6)]Man(a1-6)]Man(b1-4)GlcNAc(b1-4)[Fuc(a1-6)]GlcNAc
Outline: as §1

[4] = target: Gal(b1-4)GlcNAc(b1-2)[Gal(b1-4)GlcNAc(b1-6)]Man(a1-6)[Gal(b1-4)GlcNAc(b1-2)Man(a1-3)]Man(b1-4)GlcNAc(b1-4)GlcNAc
Outline: as §1

[5] = target: Gal(b1-4)GlcNAc(b1-2)[Gal(b1-4)GlcNAc(b1-6)]Man(a1-6)[Gal(b1-4)GlcNAc(b1-2)Man(a1-3)]Man(b1-4)GlcNAc(b1-4)[Fuc(a1-6)]GlcNAc
Outline: as §1

[6] = target: Gal(b1-4)GlcNAc(b1-2)[Gal(b1-4)GlcNAc(b1-6)]Man(a1-6)[GlcNAc(b1-4)][Gal(b1-4)GlcNAc(b1-2)Man(a1-3)]Man(b1-4)GlcNAc(b1-4)GlcNAc
Outline: as §1

[7] = target: Gal(b1-4)GlcNAc(b1-3)Gal(b1-3)GlcNAc
Outline: as §1

[8] = target: Gal(b1-4)GlcNAc(b1-3)Gal(b1-4)Glc
Outline: as §1

[9] = target: Gal(b1-4)GlcNAc(b1-3)Gal(b1-4)GlcNAc
Outline: as §1

[10] = target: Gal(b1-4)GlcNAc(b1-3)Gal(b1-4)GlcNAc(b1-3)Gal(b1-4)GlcNAc
Outline: as §1

[11] = target: Gal(b1-4)GlcNAc(b1-3)Gal(b1-4)[Fuc(a1-3)GlcNAc(b1-6)]Gal(b1-4)Glc
Outline: as §1

[12] = target: Gal(b1-4)GlcNAc(b1-3)Gal(b1-4)[Fuc(a1-3)]GlcNAc(b1-3)Gal(b1-4)[Fuc(a1-3)]GlcNAc
Outline: as §1

[13] = target: Gal(b1-4)GlcNAc(b1-3)GalNAc
Outline: as §1

[14] = target: Gal(b1-4)GlcNAc(b1-3)[Gal(b1-4)GlcNAc(b1-6)]Gal(b1-4)GlcNAc
Outline: as §1

[15] = target: Gal(b1-4)GlcNAc(b1-3)[Gal(b1-4)GlcNAc(b1-6)]GalNAc
Outline: as §1

[16] = target: Gal(b1-4)GlcNAc(b1-3)[GlcNAc(b1-6)]Gal(b1-4)GlcNAc
Outline: as §1

[17] = target: Gal(b1-4)GlcNAc(b1-6)Gal(b1-4)GlcNAc
Outline: as §1

[18] = target: Gal(b1-4)GlcNAc(b1-6)GalNAc
Outline: as §1

[19] = target: Gal(b1-4)GlcNAc(b1-6)[Gal(b1-3)]GalNAc
Outline: as §1

Gal(b1-4)GlcNAc6P = target: Gal(b1-4)GlcNAc6P
Outline: as §1

Gal(b1-6)Gal = target: Gal(b1-6)Gal
Outline: as §1

Gal3S(b1-3)GalNAc = target: Gal3S(b1-3)GalNAc
Outline: as §1

Gal3S(b1-3)GlcNAc = target: Gal3S(b1-3)GlcNAc
Outline: as §1

[20] = target: Gal3S(b1-3)[Fuc(a1-4)]GlcNAc
Outline: as §1

Gal3S(b1-4)Glc = target: Gal3S(b1-4)Glc
Outline: as §1

Gal3S(b1-4)Glc6S = target: Gal3S(b1-4)Glc6S
Outline: as §1

Gal3S(b1-4)GlcNAc = target: Gal3S(b1-4)GlcNAc
Outline: as §1

Gal3S(b1-4)GlcNAc6S = target: Gal3S(b1-4)GlcNAc6S
Outline: as §1

[21] = target: Gal3S(b1-4)[Fuc(a1-3)]Glc
Outline: as §1

[22] = target: Gal3S(b1-4)[Fuc(a1-3)]Glc6S
Outline: as §1

B1: PitA (Streptococcus oralis), G3F8D8 (protein)
chain: MNIRFDFKKVQIIARRLVTLLAILFLCAPISLLNADSTTEPQTTLHKTITPISGQDDKYELSLDITSKLGTETQTDPLDVVLVADLSGSMQNQDVQSFDGRTISRIDALKNTLRGTNGRKGLIDTILSNSNNRLSMVGFGGKIDNKKVDQYWDGNKWRLFRPYWPYERMTKYYDGVSPWDDANTILGWSNNARAAKTAVYNMSIAGGNSIGTESGIGTGTNIGAGLTLANQLMGSARSNAKKVVILLSDGFANMVYDANGYTIYNYNNEDPNIETAPQWFWDRLNNNLNSLSYSLAPTLDGFYSIKFRYSNNVDSITSLQYYMRQHNASIPNEIFSANDEDQLRDSFKDITDKILPLGIHHVSIKDVLSKYVQLLPNGSSEFRVVKEKDGSSEILIENQVTFDTKTTSEGLVEVTAKFSPNYSLEDGARYVLKFTVTSSQEALDAIAGDKKLEAGDAEGSDVNKLYSNKGASVTYSYGIGNSQTKTKEYSDNPTFKPSDPLTVPVEVEWQGVTGARTVITADQPSNVELKLVQKNKNGGSDNQDYRKTNVNVSKNVSNETRNFEKVAKGYQYDLIAPDVPAFTKEIKNVGTESKPSFKVIYKQLPSLTIKKVLEAENNLNKEFRIKVKLTSPDSKPLNGTFGEITVVNGEAEIRVEKRKRWEGILSYLPRGTHYKVEEEAASTNGYHVTYENQEGDLNKDETSIVTNHKLPSLSVTKKVTGVFANLLKSFKITINIRDAQNSPLNGTYTATVNNKRTPLQFTNGRASIDLNKDQTIKIYGLPLDSHYTVEEESNSSRGYQVSYENQEGKLDGDKSATVTNNKNSVPETGVDFLSSTLMLGIILPLGGIFFTILLGYLVVHRRK
glycan array binding signal (z-score) [1]: -0.184 | glycan array binding signal (z-score) [2]: 1.74 | glycan array binding signal (z-score) [3]: -0.382 | glycan array binding signal (z-score) [4]: -0.017 | glycan array binding signal (z-score) [5]: -0.311 | glycan array binding signal (z-score) [6]: -0.412 | glycan array binding signal (z-score) [7]: 0.312 | glycan array binding signal (z-score) [8]: 0.615 | glycan array binding signal (z-score) [9]: -0.586 | glycan array binding signal (z-score) [10]: -0.47 | glycan array binding signal (z-score) [11]: -0.432 | glycan array binding signal (z-score) [12]: -0.478 | glycan array binding signal (z-score) [13]: -0.575 | glycan array binding signal (z-score) [14]: -0.764 | glycan array binding signal (z-score) [15]: 0.195 | glycan array binding signal (z-score) [16]: -0.64 | glycan array binding signal (z-score) [17]: 0.378 | glycan array binding signal (z-score) [18]: 0.228 | glycan array binding signal (z-score) [19]: -0.546 | glycan array binding signal (z-score) (Gal(b1-4)GlcNAc6P): -0.111 | glycan array binding signal (z-score) (Gal(b1-6)Gal): 0.067 | glycan array binding signal (z-score) (Gal3S(b1-3)GalNAc): -0.557 | glycan array binding signal (z-score) (Gal3S(b1-3)GlcNAc): -0.291 | glycan array binding signal (z-score) [20]: -0.462 | glycan array binding signal (z-score) (Gal3S(b1-4)Glc): 0.073 | glycan array binding signal (z-score) (Gal3S(b1-4)Glc6S): -0.213 | glycan array binding signal (z-score) (Gal3S(b1-4)GlcNAc): -0.738 | glycan array binding signal (z-score) (Gal3S(b1-4)GlcNAc6S): 0.542 | glycan array binding signal (z-score) [21]: 0.218 | glycan array binding signal (z-score) [22]: 1.91
